The values that follow come from patent US7592419B2, “Macrocyclic inhibitors of hepatitis C virus NS3-serine protease” (Schering Corporation, priority 2003, dated 2009).

The structures appear in SMILES notation.

For one assay, the target named is Recombinant heterodimeric HCV NS3/NS4A protease (strain 1a) (Hepatitis C virus genotype 1a, UniProt P27958). The experiment in a line: Spectrophotometric assay for HCV protease inhibitory activity (chromogenic ester substrates). The class given is biochemical, hepatitis C virus (strain 1a). The note with it: Table 1, 30° C., pH 6.5, read-out: Binding Activity (Ki rating). The protocol: Assay for HCV Protease Inhibitory Activity:
Spectrophotometric Assay: Spectrophotometric assays for the HCV serine protease was performed on the inventive compounds by following the procedure described by R. Zhang et al, Analytical Biochemistry, 270 (1999) 268-275, the disclosure of which is incorporated herein by reference. The assay based on the proteolysis of chromogenic ester substrates is suitable for the continuous monitoring of HCV NS3 protease activity. The substrates were derived from the P side of the NS5A-NS5B junction sequence (Ac-DTEDVVX(Nva), where X=A or P) whose C-terminal carboxyl groups were esterified with one of four different chromophoric alcohols (3- or 4-nitrophenol, 7-hydroxy-4-methyl-coumarin, or 4-phenylazophenol). Presented below are the synthesis, characterization and application of these novel spectrophotometric ester substrates to high throughput screening and detailed kinetic evaluation of HCV NS3 protease inhibitors. Materials and Methods:
Protein concentrations were determined by the Biorad dye method using recombinant HCV protease standards previously quantified by amino acid analysis. Prior to assay initiation, the enzyme storage buffer (50 mM sodium phosphate pH 8.0, 300 mM NaCl, 10% glycerol, 0.05% lauryl maltoside and 10 mM DTT) was exchanged for the assay buffer (25 mM MOPS pH 6.5, 300 mM NaCl, 10% glycerol, 0.05% lauryl maltoside, 5 μM EDTA and 5 μM DTT) utilizing a Biorad Bio-Spin P-6 prepacked column.
Protease Assay: HCV protease assays were performed at 30° C. using a 200 μl reaction mix in a 96-well microtiter plate. Assay buffer conditions (25 mM MOPS pH 6.5, 300 mM NaCl, 10% glycerol, 0.05% lauryl maltoside, 5 μM EDTA and 5 μM DTT) were optimized for the NS3/NS4A heterodimer (D. L. Sali et al, ibid.)). Typically, 150 μl mixtures of buffer, substrate and inhibitor were placed in wells (final concentration of DMSO≦4% v/v) and allowed to preincubate at 30° C. for approximately 3 minutes. Fifty μls of prewarmed protease (12 nM, 30° C.) in assay buffer, was then used to initiate the reaction (final volume 200 μl). The plates were monitored over the length of the assay (60 minutes) for change in absorbance at the appropriate wavelength (340 nm for 3-Np and HMC, 370 nm for PAP, and 400 nm for 4-Np) using a Spectromax Plus microtiter plate reader equipped with a monochrometer (acceptable results can be obtained with plate readers that utilize cutoff filters). Proteolytic cleavage of the ester linkage between the Nva and the chromophore was monitored at the appropriate wavelength against a no enzyme blank as a control for non-enzymatic hydrolysis. The evaluation of substrate kinetic parameters was performed over a 30-fold substrate concentration range (−6-200 μM). Initial velocities were determined using linear regression and kinetic constants were obtained by fitting the data to the Michaelis-Menten equation using non-linear regression analysis (Mac Curve Fit 1.1, K. Raner). Turnover numbers (kcat) were calculated assuming the enzyme was fully active.
Evaluation of Inhibitors and Inactivators: The inhibition constants (Ki*) for the competitive inhibitors Ac-D-(D-Gla)-L-1-(Cha)-C-OH (27), Ac-DTEDVVA(Nva)-OH and Ac-DTEDWP(Nva)-OH were determined experimentally at fixed concentrations of enzyme and substrate by plotting vo/vi vs. inhibitor concentration ([I]o) according to the rearranged Michaelis-Menten equation for competitive inhibition kinetics: vo/vi=1+[I]o/(Ki(1+[S]o/Km)), where vo is the uninhibited initial velocity, vi is the initial velocity in the presence of inhibitor at any given inhibitor concentration ([I]o) and [S]o is the substrate concentration used. The resulting data were fitted using linear regression and the resulting slope, 1/(Ki(1+[S]o/Km), was used to calculate the Ki* value.
In the case of `CC1(C)C[C@H]2[C@H](CN3C(=O)[C@@H](NC(=O)OCc4ccccc4)CCCC/C=C/CCCC[C@@H](C(=O)C(N)=O)NC(=O)[C@H]23)O1` [Example 11], the inhibitory constant (Ki) was no less than 1000 nM.
`CN(C)C(=O)[C@@H](NC(=O)CNC(=O)C(=O)[C@@H]1CCCC/C=C/CCCC[C@H](NC(=O)OCc2ccccc2)C(=O)N2C[C@@H]3OC(C)(C)C[C@@H]3[C@H]2C(=O)N1)c1ccccc1` [Example 9]: the inhibition constant Ki is less than 100 nM.
Turning to `C=CCNC(=O)C(=O)[C@@H]1CCCCCCCCC[C@H](NC(=O)N[C@H](C(=O)C2CC2)C(C)C)C(=O)N2C[C@H]3[C@@H]([C@H]2C(=O)N1)C3(C)C` [Example 29], the Ki is less than 100 nM.

The same assay, now with this note: Table 2, 30° C., pH 6.5, read-out: Activity Ki* (nM) (rating).
Regarding `C=CCNC(=O)C(=O)[C@@H]1CCCCNC(=O)OCCC[C@H](NC(=O)N[C@H](CN2C(=O)CC(C)(C)CC2=O)C(C)(C)C)C(=O)N2C[C@H]3[C@@H]([C@H]2C(=O)N1)C3(C)C` [Example 72], the inhibition constant (Ki) was less than 100 nM.
As to `CN(C[C@@H](NC(=O)N[C@H]1CCCCCCCCC[C@@H](C(=O)C(=O)NC2CC2)NC(=O)[C@@H]2[C@@H]3[C@H](CN2C1=O)C3(C)C)C(C)(C)C)S(=O)(=O)c1cccs1` [Example 36], the inhibition constant (Ki) was less than 100 nM.
On the same count and under the same terms, next, `CC1(C)CCN(C[C@@H](NC(=O)N[C@H]2COCCCCCCC[C@@H](C(=O)C(=O)NC3CC3)NC(=O)[C@@H]3[C@@H]4[C@H](CN3C2=O)C4(C)C)C(C)(C)C)C(=O)C1` [Example 61]: less than 100 nM; `C=CCNC(=O)C(=O)[C@@H]1CCCCCCCO[C@@H](C)[C@H](NC(=O)NC2(CS(=O)(=O)C(C)(C)C)CCCCC2)C(=O)N2C[C@H]3[C@@H]([C@H]2C(=O)N1)C3(C)C` [Example 74]: less than 100 nM; `CCS(=O)(=O)N(C)C[C@@H](NC(=O)N[C@@H]1C(=O)N2C[C@H]3[C@@H]([C@H]2C(=O)N[C@H](C(=O)C(=O)NC2CC2)CCCCCCCO[C@H]1C)C3(C)C)C(C)(C)C` [Example 76]: less than 100 nM.
With `CC1(C)[C@@H]2[C@H]3C(=O)N[C@H](C(=O)C(=O)NC4CC4)CCCCCCCCC[C@H](NC(=O)NC4(CS(=O)(=O)C(C)(C)C)CCCCC4)C(=O)N3C[C@@H]21` [Example 39], the Ki is less than 100 nM.
For `CCCNC(=O)C(=O)[C@@H]1CCCCCCCCC[C@H](NC(=O)N[C@H](CN(C)S(=O)(=O)c2cccs2)C(C)(C)C)C(=O)N2C[C@H]3[C@@H]([C@H]2C(=O)N1)C3(C)C` [Example 42], the inhibition constant Ki was less than 100 nM.
As for `C=CCNC(=O)C(=O)[C@@H]1CCCCNC(=O)OCCC[C@H](NC(=O)NC2(CS(=O)(=O)C(C)(C)C)CCCCC2)C(=O)N2C[C@H]3[C@@H]([C@H]2C(=O)N1)C3(C)C` [Example 71], the inhibition constant Ki was less than 100 nM.
Still for that read-out and setting: then `CCNC(=O)C(=O)[C@@H]1CCCCCCCCC[C@H](NC(=O)N[C@H](CN2CCC(C)(C)CC2=O)C(C)(C)C)C(=O)N2C[C@H]3[C@@H]([C@H]2C(=O)N1)C3(C)C` [Example 70], with less than 100 nM; and `C[C@@H]1OCCCCCCC[C@@H](C(=O)C(=O)NC2CC2)NC(=O)[C@@H]2[C@@H]3[C@H](CN2C(=O)[C@H]1NC(=O)NC1(CS(=O)(=O)C(C)(C)C)CCCCC1)C3(C)C` [Example 77], with less than 100 nM; and `CC1(C)CC(=O)N(C[C@@H](NC(=O)N[C@H]2CCCCCCCCC[C@@H](C(=O)C(=O)NC3CC3)NC(=O)[C@@H]3[C@@H]4[C@H](CN3C2=O)C4(C)C)C(C)(C)C)C(=O)C1` [Example 67], with less than 100 nM.

The assay is the same for the next values; noted with them: Table 2A, 30° C., pH 6.5, read-out: Binding Activity (Ki rating).
Take `COCC(=O)CNC(=O)C(=O)C1CCCCCCC[C@H](NC(=O)OCC(C)C)C(=O)N2CCC[C@H]2C(=O)N1` (stereo partly drawn) [Example 85]: the inhibition constant (Ki) is no less than 1000 nM.
Regarding `CC(C)COC(=O)N[C@H]1CCC(O)C(O)CCCC(C(=O)C(=O)NCC(=O)N[C@@H](C)C(=O)OC(C)(C)C)NC(=O)[C@@H]2CCCN2C1=O` (stereo partly drawn) [Example 88], the Ki was no less than 1000 nM.
For the compound `CC(C)COC(=O)N[C@H]1CCCCCC2(CC2)CC(C(=O)C(=O)NCC(=O)N[C@H](C(=O)O)c2ccccc2)NC(=O)[C@@H]2CCCN2C1=O` (stereo partly drawn) [Example 89], the inhibition constant (Ki) is no less than 1000 nM.

Staying with this assay, now noted: Table 3, 30° C., pH 6.5, read-out: Activity Ki*.
Take `C=CCNC(=O)C(=O)[C@@H]1CCCCCCCCC[C@H](NC(=O)N[C@H](C(=O)C2CC2)C(C)C)C(=O)N2C[C@H]3[C@@H]([C@H]2C(=O)N1)C3(C)C` [Example 29]: the Ki is 20 nM.
